# Reference: the supplement of paper PMC8728848
# The list shows a part of the results.
# B1: MpL2 (Macrolepiota procera) (protein)
# chain: MSTQVSSGQTYKITNVKAGTVIRLSGEDNKSIIGYPYHSGKNQQWTFNWTGKAWTLRSASSGSYLGIEGTPADGTRLVAVNDPFEWHIWRDEANENAFRIFVPFTNYNLDLSGYGDTTPGTPVQLWWTWEGLHQTWTIDRP
# Assays:
# Assay in all cases: glycan array binding signal (z-score within array); higher = stronger binding
# Details in all cases: glycan notation: IUPAC condensed, linker removed; mutation: D22R
# Fuc(a1-2)Gal = biological target: Fuc(a1-2)Gal
# In short: (§1)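 The binding signal is a Z-score computed within each array. Data were drawn from 3228 arrays in the Consortium for Functional Glycomics database, restricted to those with a known protein sequence. Scores were averaged over arrays of the same protein sequence at different concentrations or buffers, and over linkers, and negative values can be taken as non-binding.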
# Fuc(a1-2)Gal(b1-3)GalNAc = biological target: Fuc(a1-2)Gal(b1-3)GalNAc
# In short: as §1
# [1] = biological target: Fuc(a1-2)Gal(b1-3)GalNAc(a1-3)[Fuc(a1-2)]Gal(b1-4)Glc
# In short: as §1
# [2] = biological target: Fuc(a1-2)Gal(b1-3)GalNAc(a1-3)[Fuc(a1-2)]Gal(b1-4)GlcNAc
# In short: as §1
# [3] = biological target: Fuc(a1-2)Gal(b1-3)GalNAc(b1-3)Gal
# In short: as §1
# [4] = biological target: Fuc(a1-2)Gal(b1-3)GalNAc(b1-3)Gal(a1-4)Gal(b1-4)Glc
# In short: as §1
# [5] = biological target: Fuc(a1-2)Gal(b1-3)GalNAc(b1-4)[Neu5Ac(a2-3)]Gal(b1-4)Glc
# In short: as §1
# Fuc(a1-2)Gal(b1-3)GlcNAc = biological target: Fuc(a1-2)Gal(b1-3)GlcNAc
# In short: as §1
# [6] = biological target: Fuc(a1-2)Gal(b1-3)GlcNAc(b1-2)Man(a1-3)[Fuc(a1-2)Gal(b1-3)GlcNAc(b1-2)Man(a1-6)]Man(b1-4)GlcNAc(b1-4)GlcNAc
# In short: as §1
# [7] = biological target: Fuc(a1-2)Gal(b1-3)GlcNAc(b1-2)Man(a1-3)[Fuc(a1-2)Gal(b1-3)GlcNAc(b1-2)Man(a1-6)]Man(b1-4)GlcNAc(b1-4)[Fuc(a1-6)]GlcNAc
# In short: as §1
# [8] = biological target: Fuc(a1-2)Gal(b1-3)GlcNAc(b1-3)Gal(b1-4)Glc
# In short: as §1
# [9] = biological target: Fuc(a1-2)Gal(b1-3)GlcNAc(b1-3)GalNAc
# In short: as §1
# [10] = biological target: Fuc(a1-2)Gal(b1-3)GlcNAc(b1-3)[Fuc(a1-2)Gal(b1-3)GlcNAc(b1-6)]GalNAc
# In short: as §1
# [11] = biological target: Fuc(a1-2)Gal(b1-3)GlcNAc(b1-3)[Gal(b1-4)GlcNAc(b1-6)]Gal(b1-4)Glc
# In short: as §1
# [12] = biological target: Fuc(a1-2)Gal(b1-3)GlcNAc(b1-3)[Neu5Ac(a2-6)Gal(b1-4)GlcNAc(b1-6)]Gal(b1-4)Glc
# In short: as §1
# [13] = biological target: Fuc(a1-2)Gal(b1-3)GlcNAc6S
# In short: as §1
# [14] = biological target: Fuc(a1-2)Gal(b1-3)[Fuc(a1-4)]GlcNAc
# In short: as §1
# [15] = biological target: Fuc(a1-2)Gal(b1-3)[Fuc(a1-4)]GlcNAc(b1-2)Man(a1-3)[Fuc(a1-2)Gal(b1-3)[Fuc(a1-4)]GlcNAc(b1-2)Man(a1-3)]Man(b1-4)GlcNAc(b1-4)GlcNAc
# In short: as §1
# [16] = biological target: Fuc(a1-2)Gal(b1-3)[Fuc(a1-4)]GlcNAc(b1-2)Man(a1-3)[Fuc(a1-2)Gal(b1-3)[Fuc(a1-4)]GlcNAc(b1-2)Man(a1-6)]Man(b1-4)GlcNAc(b1-4)[Fuc(a1-6)]GlcNAc(b1-4)[Fuc(a1-6)]GlcNAc
# In short: as §1
# [17] = biological target: Fuc(a1-2)Gal(b1-3)[Fuc(a1-4)]GlcNAc(b1-3)[Fuc(a1-3)[Gal(b1-4)]GlcNAc(b1-6)]Gal(b1-4)Glc
# In short: as §1
# [18] = biological target: Fuc(a1-2)Gal(b1-3)[Fuc(a1-4)]GlcNAc(b1-3)[Gal(b1-4)GlcNAc(b1-6)]Gal(b1-4)Glc
# In short: as §1
# [19] = biological target: Fuc(a1-2)Gal(b1-4)Fuc(a1-3)]GlcNAc(b1-2)Man(a1-3)[Fuc(a1-2)Gal(b1-4)[Fuc(a1-3)]GlcNAc(b1-2)Man(a1-6)]Man(b1-4)GlcNAc(b1-4)GlcNAc
# In short: as §1
# Fuc(a1-2)Gal(b1-4)Glc = biological target: Fuc(a1-2)Gal(b1-4)Glc
# In short: as §1
# Fuc(a1-2)Gal(b1-4)Glc6S = biological target: Fuc(a1-2)Gal(b1-4)Glc6S
# In short: as §1
# Fuc(a1-2)Gal(b1-4)GlcNAc = biological target: Fuc(a1-2)Gal(b1-4)GlcNAc
# In short: as §1
# [20] = biological target: Fuc(a1-2)Gal(b1-4)GlcNAc(b1-2)Man
# In short: as §1
# [21] = biological target: Fuc(a1-2)Gal(b1-4)GlcNAc(b1-2)Man(a1-3)[Fuc(a1-2)Gal(b1-4)GlcNAc(b1-2)Man(a1-6)]Man(b1-4)GlcNAc(b1-4)GlcNAc
# In short: as §1
# [22] = biological target: Fuc(a1-2)Gal(b1-4)GlcNAc(b1-2)Man(a1-3)[Fuc(a1-2)Gal(b1-4)GlcNAc(b1-2)Man(a1-6)]Man(b1-4)GlcNAc(b1-4)[Fuc(a1-6)]GlcNAc
# In short: as §1
# [23] = biological target: Fuc(a1-2)Gal(b1-4)GlcNAc(b1-2)[Fuc(a1-2)Gal(b1-4)GlcNAc(b1-4)]Man(a1-3)[Fuc(a1-2)Gal(b1-4)GlcNAc(b1-2)Man(a1-6)]Man(b1-4)GlcNAc(b1-4)GlcNAc
# In short: as §1
# [24] = biological target: Fuc(a1-2)Gal(b1-4)GlcNAc(b1-3)Gal(b1-4)GlcNAc
# In short: as §1
binder,measurement,setting,value
B1,glycan array binding signal (z-score),Fuc(a1-2)Gal,0.146
same,glycan array binding signal (z-score),Fuc(a1-2)Gal(b1-3)GalNAc,-0.149
same,glycan array binding signal (z-score),[1],-0.079
same,glycan array binding signal (z-score),[2],-0.287
same,glycan array binding signal (z-score),[3],0.001
same,glycan array binding signal (z-score),[4],-0.291
same,glycan array binding signal (z-score),[5],-0.083
same,glycan array binding signal (z-score),Fuc(a1-2)Gal(b1-3)GlcNAc,-0.416
same,glycan array binding signal (z-score),[6],0.429
same,glycan array binding signal (z-score),[7],0.305
same,glycan array binding signal (z-score),[8],0.096
same,glycan array binding signal (z-score),[9],-0.233
same,glycan array binding signal (z-score),[10],-1.06
same,glycan array binding signal (z-score),[11],-0.239
same,glycan array binding signal (z-score),[12],-0.277
same,glycan array binding signal (z-score),[13],-0.404
same,glycan array binding signal (z-score),[14],-0.365
same,glycan array binding signal (z-score),[15],-0.016
same,glycan array binding signal (z-score),[16],0.051
same,glycan array binding signal (z-score),[17],0.071
same,glycan array binding signal (z-score),[18],-0.182
same,glycan array binding signal (z-score),[19],1.6
same,glycan array binding signal (z-score),Fuc(a1-2)Gal(b1-4)Glc,-0.454
same,glycan array binding signal (z-score),Fuc(a1-2)Gal(b1-4)Glc6S,-0.129
same,glycan array binding signal (z-score),Fuc(a1-2)Gal(b1-4)GlcNAc,-0.202
same,glycan array binding signal (z-score),[20],0.129
same,glycan array binding signal (z-score),[21],-0.213
same,glycan array binding signal (z-score),[22],0.543
same,glycan array binding signal (z-score),[23],-0.152
same,glycan array binding signal (z-score),[24],-0.598
